From PubChem BioAssay AID602310 (National Center for Advancing Translational Sciences (NCATS), 2012)
“And” between values parts separate entries of the source, which are not always exact repeats. Equal entries are not always repeated. In all, about 410,000 compounds went through this assay and about 310 (0.076%) were called active. This list was built around the results that the source calls inconclusive (neither active nor inactive); the mix of calls is not that of the screen. The call rests on the fitted dose curve; in most records, active means well fitted curve in the direction sought with a large enough effect; inconclusive means small, poorly fitted or top-dose-only effect; inactive means flat fitted curve, though single readings scatter. Where the call is inconclusive, the potency comes from a doubtful curve fit.

Target: DNA dC->dU-editing enzyme APOBEC-3G (Homo sapiens) (UniProt Q9HC16)
UniProt Q9HC16, sequence (Q9HC16 whole entry, looked up): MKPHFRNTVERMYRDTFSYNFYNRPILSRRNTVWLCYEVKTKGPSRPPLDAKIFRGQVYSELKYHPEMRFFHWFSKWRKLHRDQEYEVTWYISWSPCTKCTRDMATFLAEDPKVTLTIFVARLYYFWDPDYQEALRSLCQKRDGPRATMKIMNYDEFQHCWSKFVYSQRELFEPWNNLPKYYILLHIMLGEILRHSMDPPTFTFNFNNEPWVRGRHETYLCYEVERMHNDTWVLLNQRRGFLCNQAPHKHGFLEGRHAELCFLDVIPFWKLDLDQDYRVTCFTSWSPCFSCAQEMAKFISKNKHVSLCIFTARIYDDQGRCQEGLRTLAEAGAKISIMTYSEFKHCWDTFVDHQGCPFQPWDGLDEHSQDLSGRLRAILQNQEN
Assay: qHTS for Inhibitors of Vif-A3G Interactions: qHTS; further: nearly all actives have a fitted effect of over 60% in size
Details: HeLa A3G-eYFP + Vif (tagged APOBEC3G with the HIV-1 protein that degrades it), YFP fluorescence, overnight; series mostly up to 46.1 µM
In short: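 Read-out is eYFP fluorescence (Ex 488/Em 500-530) from Vif-expressing HeLa A3G-eYFP cells; more signal means A3G escaped Vif-mediated degradation. Cells plated overnight, compound pinned in, incubated overnight at 37 deg C.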
Potency means the concentration at half of the fitted maximal effect; tags describe the fitted curve by direction and shape.

Structure (SMILES)	Potency
COc1cc(CNCCO)cc(Cl)c1OCc1ccc(Cl)cc1Cl	inconclusive: 31.6 µM [inhibitor, single point]
O=C1c2ccccc2C2(c3ccccc3)N1CCN2C(=O)C(Cl)(Cl)Cl (centres undefined)	inconclusive: 35.5 µM [inhibitor, partial curve, poor fit]
COc1cc(/C=C/C(=O)c2cccc([N+](=O)[O-])c2)cc(OC)c1OC	inconclusive: 31.6 µM [inhibitor, partial curve, poor fit]
CN(C)CC(C(=O)c1ccccc1)c1ccccc1 (centres undefined)	inconclusive: 12.6 µM [inhibitor, partial curve, poor fit]
COc1ccc2c(c1OC)C(=O)O[C@@H]2[C@H]1c2c(cc3c(c2OC)OCO3)CCN1C	inconclusive: 22.4 µM [inhibitor, single point]
CSc1c(C#N)c(N)nc2sc(C(=O)c3ccc(Cl)c(Cl)c3)c(N)c12	inconclusive: 3.16 µM [inhibitor, single point]
COc1ccc(Br)cc1C=NNS(=O)(=O)c1ccc(C)cc1	inconclusive: 35.5 µM [inhibitor, single point]
Cc1ccc(SCc2nc3ccccc3[nH]2)cc1	inactive
Cn1c(C=O)c(C#Cc2ccccc2)c2ccccc21	inactive
CCOc1ccc(S(=O)(=O)Nc2cc(SCC(=O)O)c(O)c3ccccc23)cc1	inconclusive: 3.16 µM [inhibitor, full curve]
CN(C)c1ccc(/C=C/c2ccnc3ccc(Br)cc23)cc1	inconclusive: 2.82 µM [inhibitor, full curve, poor fit]
O=C(Nc1ccc(F)cc1)Nc1ccc(N2CCCC2)c(S(=O)(=O)Nc2ccccc2Cl)c1	inactive
COC(=O)/C(C#N)=C/c1c(N2CCN(c3ccccc3)CC2)nc2ccccn2c1=O	inactive
Nc1c(-c2nc(-c3cccs3)no2)nnn1-c1ccc(Cl)cc1	inactive
COc1cc([N+](=O)[O-])cc(/C=N/NC(=O)c2cccnc2)c1O	inactive
Cc1nc(NC(=O)c2ccccc2)sc1Cc1ccc2c(c1)OCO2	inconclusive: 7.08 µM [inhibitor, partial curve, poor fit]
Cc1cccc(NC(=S)N(CCCN(C)C)Cc2cc3cc4c(cc3[nH]c2=O)OCO4)c1	inactive
c1ccc2nc3c(nc2c1)[nH]c1ccccc13	inconclusive: 1.26 µM [inhibitor, full curve, poor fit]
CCOc1cc(/C=C2\C(=O)ON=C2c2ccccc2)ccc1OC	inconclusive: 22.4 µM [inhibitor, single point]
Cc1ccc([C@H]2C(C(=O)O)=CC[C@@H](c3ccc(Cl)cc3)N2S(=O)(=O)c2ccc(C)cc2)cc1	inactive
COc1ccc(-c2cc(C(F)(F)F)nc(S(=O)(=O)CCCC(=O)Nc3cccc(O)c3)n2)cc1OC	inconclusive: 17.8 µM [inhibitor, single point] and inconclusive: 35.5 µM [inhibitor, partial curve, poor fit]
O=S(=O)(c1ccc(NC(=S)N2CCOCC2)cc1)N1CCCCC1	inactive
O=C(Nc1ccccc1-c1cn2c(CN3CCNCC3)csc2n1)c1cnc2ccccc2n1	inactive

Structure (SMILES)	Potency
COc1cc(NC(=O)c2cc(-c3cccs3)on2)cc(OC)c1OC	inconclusive: 7.08 µM [inhibitor, partial curve, poor fit]
CC(=O)/C(N=Nc1cc(C)ccc1O)=C(\C)O	inconclusive: 25.1 µM [inhibitor, single point]
O=C(CCCOc1ccc(Cl)cc1Cl)N/N=C\C1CCCCC1	inactive
CC(NC(=O)c1cccnc1)C(=O)O (centres undefined)	inactive
CC1=CN2C(=N)/C(=C/c3ccc(Sc4ccc(Cl)cc4)o3)C(=O)N=C2S1	inconclusive: 14.1 µM [inhibitor, single point]
COc1ccc(/C=N/NC(=O)c2ccc(CSc3nc(C)cc(C)n3)cc2)cc1O	inactive
O=C(c1ccc(Cn2cc(Cl)cn2)cc1)N1CCN(c2ccccc2)CC1	inconclusive: 20 µM [inhibitor, single point]
Cc1ccc(S(=O)(=O)N2CCCc3ccccc32)cc1	inconclusive: 8.91 µM [inhibitor, partial curve, poor fit]
CCOc1ccc(/C=N/NC(=O)c2cc3c(OC)cc(OC)c(OC)c3[nH]2)cc1	inconclusive: 7.08 µM [inhibitor, partial curve]
COC(=O)c1cccc(-n2c(CCC(=O)O)ccc2-c2ccc(OC)cc2)c1	inconclusive: 2.51 µM [inhibitor, full curve]
Cc1ccc(S(=O)(=O)N2CCCN(C)c3nc4ccccc4nc32)cc1	inconclusive: 20 µM [inhibitor, single point]
Cc1ccc(C(O)CN2C3=NCCCN3c3ccccc32)cc1 (centres undefined)	inactive
C#CCn1c(=NC(=O)c2ccc(S(=O)(=O)N3CCc4ccccc4C3)cc2)sc2cc(S(N)(=O)=O)ccc21	inconclusive: 3.55 µM [inhibitor, full curve, poor fit]
COc1ccccc1N1CCN(c2ncnc3c2oc2ccccc23)CC1	inconclusive: 1.26 µM [inhibitor, full curve, poor fit]
O=C(CN1C(=O)c2ccccc2S1(=O)=O)Nc1cc(S(=O)(=O)N2CCOCC2)ccc1N1CCOCC1	inactive
CCN(CCCNC(=O)c1ccc2c(c1)NC(=O)CN2C)c1cccc(C)c1	inconclusive: 17.8 µM [inhibitor, single point]
CN(CC(=O)Nc1ccc(Cl)c(C(F)(F)F)c1)C(=O)c1cc(=O)c2ccccc2o1	inconclusive: 11.2 µM [inhibitor, partial curve, poor fit]
CCc1ccc(C2c3[nH]c4ccccc4c3CCN2C(=O)c2ccc(=O)n(C)n2)cc1 (centres undefined)	inactive
CCc1cc2c(=O)n(Cc3ccco3)c(SCc3c(C)noc3C)nc2s1	inconclusive: 1.41 µM [inhibitor, partial curve, poor fit]
CC(=O)Nc1ccc(S(=O)(=O)N2CCSc3ccccc32)cc1	inconclusive: 5.01 µM [inhibitor, partial curve]
CCSc1nc(-c2ccc(OC)cc2)cc(-c2ccccc2)c1C#N	inactive
COc1cc(/C=C2/SC(=S)N(CCC(=O)Nc3ccccc3)C2=O)cc(OC)c1OC	inconclusive: 17.8 µM [inhibitor, partial curve, poor fit]
CC(=O)Nc1sc2c(c1-c1nc3ccccc3s1)CCN(C(C)C)C2	active: 11.2 µM

Structure (SMILES)	Potency
Cc1ccccc1-c1nc(CN2CCC(C(=O)O)CC2)c(C)o1	inactive
C=CC[C@@H](CC(=O)N[C@H](CO)Cc1ccccc1)C(=O)NC[C@H](OC(=O)[C@@H](CC=C)Cc1ccc(F)cc1)c1ccccc1	inconclusive: 35.5 µM [inhibitor, single point]
CCn1nnc(-c2ccccc2NS(=O)(=O)c2ccc(C(=O)OC)cc2)n1	inconclusive: 22.4 µM [inhibitor, single point]
CCOc1ccc(NS(=O)(=O)c2cnc(Cl)c(Cl)c2)cc1	inconclusive: 15.8 µM [inhibitor, single point]
CC1CCN(C(=O)Nc2ccc3nc(-c4ccco4)c(-c4ccco4)nc3c2)CC1	inactive
COc1cc(/C=C2\C=Cc3ccccc32)cc(OC)c1OC	inactive
Cc1ccc2c(c1)-c1c(cnc3cc(-c4ccc(Cl)cc4)nn13)CO2	inactive
O=C(O)CSc1c2ccccc2cc2ccccc12	inconclusive: 7.08 µM [inhibitor, partial curve, poor fit]
COc1cc(N=Nc2cccc(S(N)(=O)=O)c2)c2ccccc2c1N	inconclusive: 17.8 µM [inhibitor, partial curve, poor fit]
Cc1ccc(/C=C/C(=O)Nc2nccs2)o1	inactive
CCOC(=O)c1cc2c(=O)n3ccccc3nc2n(CC2CCCO2)c1=NC(=O)c1ccc(F)cc1 (centres undefined)	inactive
O=C(CCCCn1c(=O)[nH]c2ccsc2c1=O)NCc1ccc2c(c1)OCO2	inactive
Cc1ccc(-c2nc(Cn3c(SCc4ccc(F)cc4)nc4cccnc43)c(C)o2)cc1	inconclusive: 1.12 µM [inhibitor, full curve, poor fit]
COc1cc(/C=C(\C#N)C(=O)NC2CCCCC2C)ccc1OS(=O)(=O)c1ccc(C)cc1 (centres undefined)	inconclusive: 25.1 µM [inhibitor, single point]
CCOc1ccc(NC(=O)c2ccc3nc(C(C)C)oc3c2)cc1	inactive
COC(=O)c1oc2ccc(Br)cc2c1NC(=O)c1ccccc1	inconclusive: 17.8 µM [inhibitor, single point]
O=C(Nc1cccc(NC(=O)c2cc([N+](=O)[O-])ccc2Cl)n1)c1cc([N+](=O)[O-])ccc1Cl	inconclusive: 3.55 µM [inhibitor, full curve]
COc1ccc(Cl)cc1NC(=O)CN(C)CC(=O)Nc1cc(OC)c(OC)c(OC)c1	inconclusive: 2.51 µM [inhibitor, full curve, poor fit]
O=C1N(c2ccccc2)C2CS(=O)(=O)CC2N1c1ccc(Cl)c(Cl)c1 (centres undefined)	inactive
Cc1cc(C)c2c(N)c(C(=O)N/N=C/c3cccs3)sc2n1	inconclusive: 11.2 µM [inhibitor, partial curve, poor fit]
O=C(Cn1c(=O)n(-c2ccc(F)c(Cl)c2)c(=O)c2sc3ccccc3c21)NC1CCCCC1	inactive
O=C(CCNc1cccc(F)c1)c1cc2ccccc2o1	inactive
COc1ccccc1/C=C/C1(C(=O)NC2CCCC2)CC(=O)N1c1ccc(F)cc1 (centres undefined)	inconclusive: 3.16 µM [inhibitor, full curve, poor fit]
